# Results reported in a collection of fitness landscapes (doi:10.1038/s41467-024-54723-y).
# The full ranking holds about 18,000 sequences; the median of “TetR repression strength (sort-seq, GFP reporter)” is about 0.23, and the highest 2% start at about 0.68. The list shows a part of the results.
# Biological target: TetR (class B, Tn10) (UniProt P04483)
# Assay: TetR repression strength (sort-seq, GFP reporter) (relative to tetO2 = 1); higher = stronger repression
# Details: E. coli
# Outline: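 Repression strength is the top bin index plus one minus the read-weighted mean bin, relative to the unaltered operator's value. A low-copy library in E. coli SIG10-MAX randomized eight operator positions between a constitutive promoter and sfGFP, with TetR expressed constitutively; cells grew 5 h at 37 °C in LB with 50 µg/mL chloramphenicol and 10^6 were FACS-sorted into 13 bins that were each Illumina-sequenced. Three independent transformations were averaged, keeping only members with ≥30 reads in all replicates and CV ≤0.5.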
# Sequence of UniProt P04483 (P04483 whole entry): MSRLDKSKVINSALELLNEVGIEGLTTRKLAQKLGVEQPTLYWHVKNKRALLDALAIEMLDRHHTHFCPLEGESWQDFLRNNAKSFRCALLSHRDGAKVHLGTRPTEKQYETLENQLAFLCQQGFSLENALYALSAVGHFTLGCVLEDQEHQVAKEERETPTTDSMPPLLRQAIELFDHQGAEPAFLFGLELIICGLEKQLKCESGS
row,Sequence,TetR repression strength
1,TCCCCGCCAGTCCCTGAGA,0.433
2,TCCCGTACAGTTATTGAGA,0.398
3,TCCCAATCAGTTAGTGAGA,0.419
4,TCCCTTGTAGTCGTCGAGA,0.117
5,TCCCTAGAAGTAAGAGAGA,0.095
6,TCCCATAAAGTTAGGGAGA,0.368
7,TCCCAACTAGTATAGGAGA,0.235
8,TCCCGATTAGTTGGGGAGA,0.235
9,TCCCGGGAAGTTGGTGAGA,0.172
10,TCCCGGCTAGTCTCGGAGA,0.237
11,TCCCGATTAGTTAGGGAGA,0.178
12,TCCCTGCTAGTTTTTGAGA,0.414
13,TCCCGTTCAGTGATCGAGA,0.724
14,TCCCACCGAGTGGGTGAGA,0.207
15,TCCCTGATAGTGTGAGAGA,0.266
16,TCCCAACGAGTACTCGAGA,0.204
17,TCCCAGACAGTGGCTGAGA,0.193
18,TCCCACGTAGTGTACGAGA,0.291
19,TCCCACCGAGTCTTCGAGA,0.406
20,TCCCTTTGAGTTTAGGAGA,0.262
21,TCCCTTGTAGTTAATGAGA,0.289
22,TCCCTACGAGTGGTAGAGA,0.307
23,TCCCATCGAGTTTGCGAGA,0.263
24,TCCCAGTAAGTGATGGAGA,0.226
25,TCCCTGCCAGTTAGGGAGA,0.298
26,TCCCTTGCAGTGATAGAGA,0.657

row,Sequence,TetR repression strength
1,TCCCGGCCAGTAGTGGAGA,0.288
2,TCCCTGATAGTTTACGAGA,0.253
3,TCCCCCCCAGTTGGGGAGA,0.523
4,TCCCAGGGAGTGGTTGAGA,0.648
5,TCCCCAGCAGTGAATGAGA,0.346
6,TCCCAACGAGTCTGGGAGA,0.186
7,TCCCGGGCAGTAATCGAGA,0.121
8,TCCCCAGAAGTGCCAGAGA,0.0748
9,TCCCTAACAGTTGTAGAGA,0.156
10,TCCCGCAAAGTAATGGAGA,0.518
11,TCCCTTGAAGTAGGTGAGA,0.116
12,TCCCGGGGAGTACAGGAGA,0.319
13,TCCCATGTAGTTGCCGAGA,0.295
14,TCCCAGTAAGTCGTGGAGA,0.182
15,TCCCATCCAGTCAATGAGA,0.0518
16,TCCCAGTCAGTGGTCGAGA,0.249
17,TCCCTAGTAGTACATGAGA,0.0537
18,TCCCCTTTAGTATGGGAGA,0.237
19,TCCCCATGAGTGTGGGAGA,0.275
20,TCCCTTAGAGTAAGCGAGA,0.225
21,TCCCAATTAGTAATCGAGA,0.136
22,TCCCGACTAGTCAGAGAGA,0.236
23,TCCCTAAAAGTGGATGAGA,0.0992
24,TCCCGAATAGTACGAGAGA,0.498
25,TCCCAAGTAGTATGGGAGA,0.175
26,TCCCGTCCAGTGTGTGAGA,0.22

row,Sequence,TetR repression strength
1,TCCCGGTGAGTGAGTGAGA,0.315
2,TCCCGTCAAGTTGAGGAGA,0.236
3,TCCCTGGGAGTGGGGGAGA,0.138
4,TCCCGTCTAGTCTTGGAGA,0.212
5,TCCCAACTAGTAAAAGAGA,0.358
6,TCCCACGTAGTTGAGGAGA,0.136
7,TCCCGCCTAGTAAGCGAGA,0.294
8,TCCCCTGAAGTCCAGGAGA,0.138
9,TCCCGATAAGTGATAGAGA,0.733
10,TCCCGATAAGTGGCCGAGA,0.171
11,TCCCGGTGAGTCTGGGAGA,0.254
12,TCCCGTACAGTTTCAGAGA,0.244
13,TCCCTGTCAGTGTACGAGA,0.286
14,TCCCGGCTAGTACATGAGA,0.365
15,TCCCACGAAGTATCGGAGA,0.161
16,TCCCAAACAGTTAGCGAGA,0.16
17,TCCCCGCCAGTTGGCGAGA,0.16
18,TCCCGGGCAGTGATGGAGA,0.427
19,TCCCCGAAAGTCATAGAGA,0.452
20,TCCCTGGTAGTGGTTGAGA,0.282
21,TCCCTAAAAGTTGTAGAGA,0.0907
22,TCCCGTTAAGTTAGCGAGA,0.247
23,TCCCGGGGAGTAAGTGAGA,0.224
24,TCCCCGTGAGTACAGGAGA,0.239
25,TCCCTAGGAGTCCTGGAGA,0.487
26,TCCCAGTGAGTGGGGGAGA,0.201

row,Sequence,TetR repression strength
1,TCCCCAGCAGTTGATGAGA,0.136
2,TCCCGTGTAGTGGGGGAGA,0.275
3,TCCCGCTTAGTACCGGAGA,0.233
4,TCCCGGGTAGTATCCGAGA,0.274
5,TCCCAGCGAGTGGACGAGA,0.461
6,TCCCCCTAAGTGGTGGAGA,0.159
7,TCCCAGGCAGTTAATGAGA,0.426
8,TCCCAACAAGTAAACGAGA,0.104
9,TCCCAGCGAGTCGTTGAGA,0.144
10,TCCCAGTGAGTAGTTGAGA,0.149
11,TCCCTTTCAGTGTCTGAGA,0.352
12,TCCCGGTAAGTTTGAGAGA,0.4
13,TCCCCTCAAGTTATAGAGA,0.311
14,TCCCCTGCAGTGGGCGAGA,0.272
15,TCCCTCTCAGTTATCGAGA,0.603
16,TCCCGCGCAGTGGTCGAGA,0.353
17,TCCCAATGAGTTATGGAGA,0.388
18,TCCCTCTCAGTACTAGAGA,0.283
19,TCCCCATAAGTTCAGGAGA,0.323
20,TCCCAATAAGTTAGAGAGA,0.0864
21,TCCCTTACAGTAGGCGAGA,0.245
22,TCCCGCGTAGTTGTTGAGA,0.402
23,TCCCTTGTAGTGCCGGAGA,0.516
24,TCCCGTCGAGTACATGAGA,0.141
